Laboratory results reported in patent US20260242448A1 (INSTITUTE OF MICROBIOLOGY CHINESE ACADEMY OF SCIENCES, published 2026).

Assays:
[1] = target: T1, SARS-CoV-2 (BF.7) Spike RBD (SARS-CoV-2 BF.7 strain); assay: ELISA on plate-coated RBD (1 µg/mL), HRP anti-human Fc detection, OD450
T1 construct: domain: RBD; also called BF.7 RBD

[2] = target: S protein of the SARS-CoV-2 BA.1.1 strain on pseudo-virus (SARS-CoV-2 BA.1.1 strain); assay: cell-based or functional assay
[3] = target: T2, S protein of the SARS-CoV-2 XBB.1.5 strain on pseudo-virus (SARS-CoV-2 XBB.1.5 strain); assay: cell-based or functional assay
[4] = target: T3, S protein of the SARS-CoV-2 BA.1 strain on pseudo-virus (SARS-CoV-2 BA.1 strain); assay: cell-based or functional assay
[5] = target: T4, S protein of the SARS-CoV-2 BA.4/5 strains on pseudo-virus (SARS-CoV-2 BA.4/5 strain); assay: cell-based or functional assay
[6] = target: S protein of the SARS-CoV-2 BA.3 strain on pseudo-virus (SARS-CoV-2 BA.3 strain); assay: cell-based or functional assay
[7] = target: S protein of the SARS-CoV-2 BA.2 strain on pseudo-virus (SARS-CoV-2 BA.2 strain); assay: cell-based or functional assay
[8] = target: T5, S protein of the SARS-CoV-2 BF.7 strain on pseudo-virus (SARS-CoV-2 BF.7 strain); assay: cell-based or functional assay
[9] = target: T6, S protein of the SARS-CoV-2 XBB strain on pseudo-virus (SARS-CoV-2 XBB strain); assay: cell-based or functional assay
[10] = target: T7, S protein of the SARS-CoV-2 BQ.1 strain on pseudo-virus (SARS-CoV-2 BQ.1 strain); assay: cell-based or functional assay
[11] = target: T8, S protein of the SARS-CoV-2 BQ.1.1 strain on pseudo-virus (SARS-CoV-2 BQ.1.1 strain); assay: cell-based or functional assay
[12] = target: S protein of the SARS-CoV-2 XBB.1.16 strain on pseudo-virus (SARS-CoV-2 XBB.1.16 strain); assay: cell-based or functional assay
[13] = target: T9, S protein of the SARS-CoV-2 BA.2.75 strain on pseudo-virus (SARS-CoV-2 BA.2.75 strain); assay: cell-based or functional assay
[14] = target: T10, RBD of the S protein of the BA.1.1 strain (SARS-CoV-2 BA.1.1 strain); assay: ELISA on plate-coated RBD (1 µg/mL), HRP anti-human Fc detection, OD450
T10 construct: domain: RBD; also called BA.1.1 RBD

[15] = target: T11, SARS-CoV-2 BQ.1.1 (Omicron) Spike RBD (SARS-CoV-2 BQ.1.1 strain); assay: as above
T11 construct: domain: RBD; also called BQ.1.1 RBD

[16] = target: T1, SARS-CoV-2 (BF.7) Spike RBD; assay: SPR, Biacore 8K; antibody captured on Protein A chip, RBD as analyte
[17] = target: T11, SARS-CoV-2 BQ.1.1 (Omicron) Spike RBD; assay: as above
[18] = target: T12, SARS-CoV-2 XBB (Omicron) Spike RBD (SARS-CoV-2 XBB strain); assay: as above
T12 construct: domain: RBD; also called XBB RBD

[19] = target: T13, SARS-CoV-2 (BA.5) Spike RBD (SARS-CoV-2 BA.5 strain); assay: as above
T13 construct: domain: RBD; also called BA.5 RBD

[20] = target: T2, S protein of the SARS-CoV-2 XBB.1.5 …; assay: cell-based or functional assay; remark: listed apart in the source
[21] = target: T3, S protein of the SARS-CoV-2 BA.1 strain …; assay: cell-based or functional assay; remark: listed apart in the source
[22] = target: T4, S protein of the SARS-CoV-2 BA.4/5 …; assay: cell-based or functional assay; remark: listed apart in the source
[23] = target: S protein of the SARS-CoV-2 Delta strain on pseudo-virus (SARS-CoV-2 Delta strain); assay: cell-based or functional assay
[24] = target: T5, S protein of the SARS-CoV-2 BF.7 strain …; assay: cell-based or functional assay; remark: listed apart in the source
[25] = target: T6, S protein of the SARS-CoV-2 XBB strain …; assay: cell-based or functional assay; remark: listed apart in the source
[26] = target: T7, S protein of the SARS-CoV-2 BQ.1 strain …; assay: cell-based or functional assay; remark: listed apart in the source
[27] = target: T8, S protein of the SARS-CoV-2 BQ.1.1 …; assay: cell-based or functional assay; remark: listed apart in the source
[28] = target: T9, S protein of the SARS-CoV-2 BA.2.75 …; assay: cell-based or functional assay; remark: listed apart in the source
[29] = target: T13, SARS-CoV-2 (BA.5) Spike RBD; assay: ELISA on plate-coated RBD (1 µg/mL), HRP anti-human Fc detection, OD450
[30] = target: T14, RBD of the S protein of the BA.2.12.1 strain (SARS-CoV-2 BA.2.12.1 strain); assay: as above
T14 construct: domain: RBD; also called BA.2.12.1 RBD

B1: bispecific antibody protein DIA-19 (bispecific antibody)
chain: QITLKESGPTLVKPTQTLTLTCTFSGFSLSTSGVGVAWIRQPPGKALEWLALIYWDNDKRSSPSLNNRLTITKDTSKNQVVLTMTNMDPEDTATYYCAHFFSHYDSSNYYYGSWFDPWGQGTLVTVSSGGGGSGGGGS[letters of about 100 residues omitted]FTFGPGTKVDIKGGGGSGGGGSGGGGSGGGGSGGGGSEVQLVESGGGVVQPGGSLRLSCAVSGFTFDDYAMHWVRQAPGKGLDWVSLISGDGSYTYYADSVKGRFTISRDSSKNSLYLQMNSLRTEDTALYYCAKAQTPTLWWLQDAFDIWGQGTMVTVSSGGGGSGGGGSEIVLTQSPGTLSLSPGERATLSCRASQSFDSRYLGWYQQKSGQAPRLLIYGASSRATGIPDRFSGSGSGTDFTLTISRLEPEDFAVYYCQQFGDSPFTFGQGTKLEIKGGGGS[letters of human IgG1 Fc with changes omitted]
EC50 [1]: 0.1 nM | Neutralization Effects (IC50) against SARS-CoV-2 pseudo-viruses [2]: 0.182 ng/mL | Neutralization Effects (IC50) against SARS-CoV-2 pseudo-viruses [3]: 0.899 ng/mL | Neutralization Effects (IC50) against SARS-CoV-2 pseudo-viruses [4]: 0.272 ng/mL | Neutralization Effects (IC50) against SARS-CoV-2 pseudo-viruses [5]: 0.332 ng/mL | Neutralization Effects (IC50) against SARS-CoV-2 pseudo-viruses [6]: 0.311 ng/mL | Neutralization Effects (IC50) against SARS-CoV-2 pseudo-viruses [7]: 0.377 ng/mL | Neutralization Effects (IC50) against SARS-CoV-2 pseudo-viruses [8]: 0.451 ng/mL | Neutralization Effects (IC50) against SARS-CoV-2 pseudo-viruses [9]: 0.652 ng/mL | Neutralization Effects (IC50) against SARS-CoV-2 pseudo-viruses [10]: 3.14 ng/mL | Neutralization Effects (IC50) against SARS-CoV-2 pseudo-viruses [11]: 7.51 ng/mL | Neutralization Effects (IC50) against SARS-CoV-2 pseudo-viruses [12]: 0.72 ng/mL | Neutralization Effects (IC50) against SARS-CoV-2 pseudo-viruses [13]: 1.01 ng/mL | EC50 [14]: 0.0104 nM | EC50 [15]: 0.144 nM | Kd [16]: 0.045 nM | koff [16]: 5.95e-05 s⁻¹ | kon [16]: 1.32e+06 M⁻¹ s⁻¹ | Kd [17]: 0.203 nM | koff [17]: 0.000222 s⁻¹ | kon [17]: 1.09e+06 M⁻¹ s⁻¹ | Kd [18]: 0.0811 nM | koff [18]: 0.000535 s⁻¹ | kon [18]: 6.59e+06 M⁻¹ s⁻¹ | Kd [19]: 0.0359 nM | koff [19]: 6.06e-05 s⁻¹ | kon [19]: 1.69e+06 M⁻¹ s⁻¹ | Neutralization activity (IC50) against pseudo-virus [20]: 1.66 ng/mL | Neutralization activity (IC50) against pseudo-virus [21]: 0.423 ng/mL | Neutralization activity (IC50) against pseudo-virus [22]: 0.859 ng/mL | Neutralization activity (IC50) against pseudo-virus [23]: 1.34 ng/mL | Neutralization activity (IC50) against pseudo-virus [24]: 1.19 ng/mL | Neutralization activity (IC50) against pseudo-virus [25]: 1.94 ng/mL | Neutralization activity (IC50) against pseudo-virus [26]: 6.82 ng/mL | Neutralization activity (IC50) against pseudo-virus [27]: 46.6 ng/mL | Neutralization activity (IC50) against pseudo-virus [28]: 1.76 ng/mL | EC50 [29]: 0.0842 nM | EC50 [30]: 0.0606 nM

B2: bispecific antibody protein DIA-20 (bispecific antibody)
chain: EIVLTQSPGTLSLSPGERATLSCRASQSFDSRYLGWYQQKSGQAPRLLIYGASSRATGIPDRFSGSGSGTDFTLTISRLEPEDFAVYYCQQFGDSPFTFGQGTKLEIKGGGGSGGGGSEVQLVESGGGVVQPGGSLRLSCAVSGFTFDDYAMHWVRQAPGKGLDWVSLISGDGSYTYYADSVKGRFTISRDSSKNSLYLQMNSLRTEDTALYYCAKAQTPTLWWLQDAFDIWGQGTMVTVSSGGGGSGGGGSGGGGSGGGGSGGGGS[letters of about 100 residues omitted]FTFGPGTKVDIKGGGGSGGGGSQITLKESGPTLVKPTQTLTLTCTFSGFSLSTSGVGVAWIRQPPGKALEWLALIYWDNDKRSSPSLNNRLTITKDTSKNQVVLTMTNMDPEDTATYYCAHFFSHYDSSNYYYGSWFDPWGQGTLVTVSSGGGGS[letters of human IgG1 Fc with changes omitted]
EC50 [14]: 0.0343 nM | EC50 [29]: 0.0843 nM | EC50 [30]: 0.0476 nM

B3: bispecific antibody protein DIA-21 (bispecific antibody)
chain: EVQLVESGGGVVQPGGSLRLSCAVSGFTFDDYAMHWVRQAPGKGLDWVSLISGDGSYTYYADSVKGRFTISRDSSKNSLYLQMNSLRTEDTALYYCAKAQTPTLWWLQDAFDIWGQGTMVTVSSGGGGSGGGGSEIVLTQSPGTLSLSPGERATLSCRASQSFDSRYLGWYQQKSGQAPRLLIYGASSRATGIPDRFSGSGSGTDFTLTISRLEPEDFAVYYCQQFGDSPFTFGQGTKLEIKGGGGSGGGGSGGGGSGGGGSGGGGSQITLKESGPTLVKPTQTLTLTCTFSGFSLSTSGVGVAWIRQPPGKALEWLALIYWDNDKRSSPSLNNRLTITKDTSKNQVVLTMTNMDPEDTATYYCAHFFSHYDSSNYYYGSWFDPWGQGTLVTVSSGGGGSGGGGS[letters of about 100 residues omitted]FTFGPGTKVDIKGGGGS[letters of human IgG1 Fc with changes omitted]
EC50 [14]: 0.0376 nM | EC50 [29]: 0.075 nM | EC50 [30]: 0.0483 nM

B4: bispecific antibody protein DIA-22 (bispecific antibody)
chain: [letters of about 100 residues omitted]FTFGPGTKVDIKGGGGSGGGGSQITLKESGPTLVKPTQTLTLTCTFSGFSLSTSGVGVAWIRQPPGKALEWLALIYWDNDKRSSPSLNNRLTITKDTSKNQVVLTMTNMDPEDTATYYCAHFFSHYDSSNYYYGSWFDPWGQGTLVTVSSGGGGSGGGGSGGGGSGGGGSGGGGSEIVLTQSPGTLSLSPGERATLSCRASQSFDSRYLGWYQQKSGQAPRLLIYGASSRATGIPDRFSGSGSGTDFTLTISRLEPEDFAVYYCQQFGDSPFTFGQGTKLEIKGGGGSGGGGSEVQLVESGGGVVQPGGSLRLSCAVSGFTFDDYAMHWVRQAPGKGLDWVSLISGDGSYTYYADSVKGRFTISRDSSKNSLYLQMNSLRTEDTALYYCAKAQTPTLWWLQDAFDIWGQGTMVTVSSGGGGS[letters of human IgG1 Fc with changes omitted]
EC50 [14]: 0.0312 nM | EC50 [29]: 0.153 nM | EC50 [30]: 0.0484 nM
